# Data as given in paper PMC9911399, “Two distinct binding modes provide the RNA-binding protein RbFox with extraordinary sequence specificity”.
# Positions count from the first letter of the chain named. The list shows a part of the results.
# T1: RBFOX1 RRM (Homo sapiens, UniProt Q9NWB1 109-208)
# T1 sequence: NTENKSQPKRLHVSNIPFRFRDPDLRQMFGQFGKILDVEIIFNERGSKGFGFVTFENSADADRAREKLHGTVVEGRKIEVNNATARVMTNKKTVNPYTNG
# B1: AGAUACU (DNA:RNA)
# RNA: GGGAGACCGGAAUUCAGAUUGUCCAGAUACUUUAAAUCCCGUCGUAGCCACCA
# DNA 1: CAATCTGAATTCCGGTCTCCC
# DNA 2: TGGTGGCTACGACGGGATT
# B2: AACCCGA (DNA:RNA)
# RNA: B1 RNA with G26A, A27C, U28C, A29C, C30G, U31A
# DNA 1: CAATCTGAATTCCGGTCTCCC
# DNA 2: TGGTGGCTACGACGGGATT
# B3: CCCCGCU (DNA:RNA)
# RNA: B1 RNA with A25C, G26C, A27C, U28C, A29G
# DNA 1: CAATCTGAATTCCGGTCTCCC
# DNA 2: TGGTGGCTACGACGGGATT
# B4: AACAAGG (DNA:RNA)
# RNA: B1 RNA with G26A, A27C, U28A, C30G, U31G
# DNA 1: CAATCTGAATTCCGGTCTCCC
# DNA 2: TGGTGGCTACGACGGGATT
# B5: CACAGGC (DNA:RNA)
# RNA: GGGAGACCGGAAUUCAGAUUGUCCCACAGGCUUAAAUCCCGUCGUAGCCACCA
# DNA 1: CAATCTGAATTCCGGTCTCCC
# DNA 2: TGGTGGCTACGACGGGATT
# B6: CCCUAAU (DNA:RNA)
# RNA: B1 RNA with A25C, G26C, A27C, C30A
# DNA 1: CAATCTGAATTCCGGTCTCCC
# DNA 2: TGGTGGCTACGACGGGATT
# B7: GUGGCGC (DNA:RNA)
# RNA: B5 RNA with C25G, A26U, C27G, A28G, G29C
# DNA 1: CAATCTGAATTCCGGTCTCCC
# DNA 2: TGGTGGCTACGACGGGATT
# B8: AUGUUCG (DNA:RNA)
# RNA: B1 RNA with G26U, A27G, A29U, U31G
# DNA 1: CAATCTGAATTCCGGTCTCCC
# DNA 2: TGGTGGCTACGACGGGATT
# B9: UUUGGUU (DNA:RNA)
# RNA: B1 RNA with A25U, G26U, A27U, U28G, A29G, C30U
# DNA 1: CAATCTGAATTCCGGTCTCCC
# DNA 2: TGGTGGCTACGACGGGATT
# B10: CCUAGAU (DNA:RNA)
# RNA: B5 RNA with A26C, C27U, G30A, C31U
# DNA 1: CAATCTGAATTCCGGTCTCCC
# DNA 2: TGGTGGCTACGACGGGATT
# B11: ACGUCAC (DNA:RNA)
# RNA: B1 RNA with G26C, A27G, A29C, C30A, U31C
# DNA 1: CAATCTGAATTCCGGTCTCCC
# DNA 2: TGGTGGCTACGACGGGATT
# B12: CUAUGUC (DNA:RNA)
# RNA: B5 RNA with A26U, C27A, A28U, G30U
# DNA 1: CAATCTGAATTCCGGTCTCCC
# DNA 2: TGGTGGCTACGACGGGATT
# B13: UGGACUA (DNA:RNA)
# RNA: B1 RNA with A25U, A27G, U28A, A29C, C30U, U31A
# DNA 1: CAATCTGAATTCCGGTCTCCC
# DNA 2: TGGTGGCTACGACGGGATT
# B14: UAUAUCC (DNA:RNA)
# RNA: B5 RNA with C25U, C27U, G29U, G30C
# DNA 1: CAATCTGAATTCCGGTCTCCC
# DNA 2: TGGTGGCTACGACGGGATT
# B15: GACGACU (DNA:RNA)
# RNA: B1 RNA with A25G, G26A, A27C, U28G
# DNA 1: CAATCTGAATTCCGGTCTCCC
# DNA 2: TGGTGGCTACGACGGGATT
# B16: UCCGUUC (DNA:RNA)
# RNA: B5 RNA with C25U, A26C, A28G, G29U, G30U
# DNA 1: CAATCTGAATTCCGGTCTCCC
# DNA 2: TGGTGGCTACGACGGGATT
# B17: CUCCCGG (DNA:RNA)
# RNA: B5 RNA with A26U, A28C, G29C, C31G
# DNA 1: CAATCTGAATTCCGGTCTCCC
# DNA 2: TGGTGGCTACGACGGGATT
# B18: GAGGUCA (DNA:RNA)
# RNA: B1 RNA with A25G, G26A, A27G, U28G, A29U, U31A
# DNA 1: CAATCTGAATTCCGGTCTCCC
# DNA 2: TGGTGGCTACGACGGGATT
# B19: UAUAAAU (DNA:RNA)
# RNA: B1 RNA with A25U, G26A, A27U, U28A, C30A
# DNA 1: CAATCTGAATTCCGGTCTCCC
# DNA 2: TGGTGGCTACGACGGGATT
# B20: GUCCUGA (DNA:RNA)
# RNA: B5 RNA with C25G, A26U, A28C, G29U, C31A
# DNA 1: CAATCTGAATTCCGGTCTCCC
# DNA 2: TGGTGGCTACGACGGGATT
# B21: UACGCUU (DNA:RNA)
# RNA: B5 RNA with C25U, A28G, G29C, G30U, C31U
# DNA 1: CAATCTGAATTCCGGTCTCCC
# DNA 2: TGGTGGCTACGACGGGATT
# B22: UUUUGGU (DNA:RNA)
# RNA: B1 RNA with A25U, G26U, A27U, A29G, C30G
# DNA 1: CAATCTGAATTCCGGTCTCCC
# DNA 2: TGGTGGCTACGACGGGATT
# B23: AUCCCAC (DNA:RNA)
# RNA: B5 RNA with C25A, A26U, A28C, G29C, G30A
# DNA 1: CAATCTGAATTCCGGTCTCCC
# DNA 2: TGGTGGCTACGACGGGATT
# B24: AAUGAAC (DNA:RNA)
# RNA: B1 RNA with G26A, A27U, U28G, C30A, U31C
# DNA 1: CAATCTGAATTCCGGTCTCCC
# DNA 2: TGGTGGCTACGACGGGATT
# B25: GCCGGGC (DNA:RNA)
# RNA: B5 RNA with C25G, A26C, A28G
# DNA 1: CAATCTGAATTCCGGTCTCCC
# DNA 2: TGGTGGCTACGACGGGATT
# B26: CCGGGGC (DNA:RNA)
# RNA: B5 RNA with A26C, C27G, A28G
# DNA 1: CAATCTGAATTCCGGTCTCCC
# DNA 2: TGGTGGCTACGACGGGATT
# B27: UGUGAUC (DNA:RNA)
# RNA: B1 RNA with A25U, A27U, U28G, C30U, U31C
# DNA 1: CAATCTGAATTCCGGTCTCCC
# DNA 2: TGGTGGCTACGACGGGATT
# B28: AAUGGCG (DNA:RNA)
# RNA: B1 RNA with G26A, A27U, U28G, A29G, U31G
# DNA 1: CAATCTGAATTCCGGTCTCCC
# DNA 2: TGGTGGCTACGACGGGATT
# B29: GAAAUGC (DNA:RNA)
# RNA: B5 RNA with C25G, C27A, G29U
# DNA 1: CAATCTGAATTCCGGTCTCCC
# DNA 2: TGGTGGCTACGACGGGATT
# B30: UCUACCG (DNA:RNA)
# RNA: B1 RNA with A25U, G26C, A27U, U28A, A29C, U31G
# DNA 1: CAATCTGAATTCCGGTCTCCC
# DNA 2: TGGTGGCTACGACGGGATT
# B31: GGGACGC (DNA:RNA)
# RNA: B5 RNA with C25G, A26G, C27G, G29C
# DNA 1: CAATCTGAATTCCGGTCTCCC
# DNA 2: TGGTGGCTACGACGGGATT
# Molecular target: T1, RBFOX1 RRM
# Experiment: EMSA; HiTS-Eq, 1 nM pool, 10 min; buffer printed only for the single-RNA assays: 10 mM Tris pH 7.5, 150 mM NaCl, 3.4 mM EDTA, 0.001% NP-40, 30 C
# Conditions: tags: His6 N-terminal (pET28a); label: 5' 32P
# Method in brief: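 Purified wild-type or mutant RbFox RRM at increasing concentrations was equilibrated with 1 nM of 5′-radiolabelled RNA carrying 7 randomized nucleotides for 10 min in 50 µL. Unbound RNA was separated by 8% native PAGE and sequenced. Relative association constants came from read-count changes of each RNA species compared with the control reaction, normalised to the cognate motif.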
row,Binder,binding signal
1,B1,0.00323 KA relative to UGCAUGU
2,B2,0.00208 KA relative to UGCAUGU
3,B3,0.00948 KA relative to UGCAUGU
4,B4,0.00601 KA relative to UGCAUGU
5,B5,0.00592 KA relative to UGCAUGU
6,B6,0.00173 KA relative to UGCAUGU
7,B7,0.0239 KA relative to UGCAUGU
8,B8,0.017 KA relative to UGCAUGU
9,B9,0.0216 KA relative to UGCAUGU
10,B10,0.00849 KA relative to UGCAUGU
11,B11,0.00303 KA relative to UGCAUGU
12,B12,0.00955 KA relative to UGCAUGU
13,B13,0.0214 KA relative to UGCAUGU
14,B14,0.0025 KA relative to UGCAUGU
15,B15,0.0112 KA relative to UGCAUGU
16,B16,0.0107 KA relative to UGCAUGU

row,Binder,binding signal
1,B17,0.00764 KA relative to UGCAUGU
2,B18,0.0153 KA relative to UGCAUGU
3,B19,0.00511 KA relative to UGCAUGU
4,B20,0.0213 KA relative to UGCAUGU
5,B21,0.00861 KA relative to UGCAUGU
6,B22,0.0172 KA relative to UGCAUGU
7,B23,0.00181 KA relative to UGCAUGU
8,B24,0.00481 KA relative to UGCAUGU
9,B25,0.0282 KA relative to UGCAUGU
10,B26,0.0147 KA relative to UGCAUGU
11,B27,0.0227 KA relative to UGCAUGU
12,B28,0.0138 KA relative to UGCAUGU
13,B29,0.0136 KA relative to UGCAUGU
14,B30,0.00317 KA relative to UGCAUGU
15,B31,0.0262 KA relative to UGCAUGU
